Assay results as given in PubChem BioAssay (NCI).
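Protocol summary: plate cells (96-well), add compound at 5 concentrations, incubate 48 h, interpolate endpoints linearly. GI50: concentration for 50% inhibition of growth.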 Not every entry of the source has a single result; some have several. The list is limited to them. An entry can have further records. The tests behind the records often covered other concentration ranges, which the source does not state; a value can be the end of its range.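 At the TGI there is no net growth.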

Legend:
Test in all cases: NCI tumour cell line growth inhibition, 48 h
[1] = tested on: A549 NSCLC
[2] = tested on: ACHN renal
[3] = tested on: CCRF-CEM leukemia
[4] = tested on: MDA-MB-231 breast
[5] = tested on: NCI-H23 lung
[6] = tested on: SF-268 CNS
[7] = tested on: SK-MEL-2 melanoma
[8] = tested on: SNB-19 CNS
[9] = tested on: SW-620 colon

Which results are given for `CC1=C(N2CC2)C(=O)C(CO)=C(N2CC2)C1=O`?
GI50 [1]: 2.86 nM [1 test] and 62.2 nM [mean of 5 tests]; TGI [1]: 35 nM [1 test] and 4.62 µM [mean of 5 tests]; TGI [2]: 4.65 nM and 122 nM; TGI [3]: 6.89 nM and 191 nM; TGI [4]: 634 nM and 6.9 µM; TGI [5]: 7.65 nM and 342 nM; TGI [6]: 44.2 nM and 694 nM; GI50 [7]: 21.1 nM [1 test] and 226 nM [mean of 2 tests]; TGI [8]: 30.9 nM and 1.8 µM; TGI [9]: 27.3 nM and 1.62 µM
